# Test results taken from PMC12040169 (PLOS Biology, 2025).
# The list shows a part of the results.
# System: T1, C. trachomatis L2/434/Bu expressing GFP (CTL2-GFP)
# T1 construct: L2/434/Bu GFP intracellular growth in HeLa cells
# Parameters: species or system HeLa; C. trachomatis total inclusion area by high-content imaging, normalised to DMSO
# Details: total inclusion area; 28.5 h, 10 µM; inhibitor
# Procedure, shortened: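 Imaging read-out: GFP inclusions and Hoechst nuclei captured by high-content imaging after fixation. Inclusion area/number = chlamydial growth; nuclei count = host cell viability. MIC calculated per earlier method.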
row,Structure (SMILES),% of control remaining
1,O=S(=O)(c1ccc(-c2ccccc2)cc1)N1CCCN(CCCO)CC1 [CBK063043],40.4359
2,Cc1cccc(-c2ccc(CC3(C(N)=O)CCN(C(=O)COc4ccccc4)CC3)cc2)c1 [CBK285797],104.72
3,CC(C)(C)c1ccc(C(=O)N2CCC3(CC2)CC(=O)N(Cc2ccc(S(C)(=O)=O)cc2)C3=O)cc1 [CBK155018],96.6006
4,CC(C)[C@@H](CO)Nc1nc(-c2occc2C=O)cnc1N [CBK063733],146.082
5,COc1nccnc1OC1CCN(CCc2c[nH]c3ccccc23)CC1 [CBK084261],90.5692
6,O=C1CC(c2ccccc2)c2c(n3ncnc3[nH]c2=O)N1 (stereo not shown) [CBK287912],103.352
7,COc1cc2c(cc1OC)C(c1ccc(C(=O)O)cc1)NCC2 (stereo not shown) [CBK286738],109.513
8,CN(C)[C@@H]1CN(Cc2ccccn2)C[C@H]1c1cn(C)c2ccccc12 [CBK284582],82.2394
9,O=C(CCc1ccccc1)NNC(=O)C1CC1c1ccccc1 (stereo not shown) [CBK261292],91.9465
10,Cc1noc(C)c1CC(=O)N1CCC(c2ccccc2)C1 (stereo not shown) [CBK281959],120.282
11,c1ccc(COc2nccnc2-c2ccccc2)cc1 [CBK106686],84.7878
12,Cc1cc(CNS(=O)(=O)N2CCCC2)c2[nH]c(C)c(C)c2c1 [CBK282772],109.471
13,COc1ccc(NC(=O)CSCc2cc(O)[nH]n2)cc1 [CBK268417],91.0298
14,COc1ccc(NC(=O)c2ccc(-c3cnc(Nc4ccc(N5CCOCC5)cc4)c4nccn34)cc2)cc1 [CBK091240],157.437
15,COc1ccc(Sc2nc3ccccc3nc2C(F)(F)F)cc1OC [CBK093779],100.794
16,Cn1c(=O)c2c(nc(SCC(=O)CSc3nc4c(c(=O)n(C)c(=O)n4C)n3C)n2C)n(C)c1=O [CBK267692],114.585
17,O=C(NC1CCCC1)c1ccncc1 [CBK143916],67.3422
18,CC12CCC(C(=O)O)(c3nc4c(ccc5ncccc54)nc31)C2(C)C (stereo not shown) [CBK269470],91.3773
19,COc1ccc(CC(C(=O)Nc2ccc3nc[nH]c(=O)c3c2)c2ccccc2)cc1 (stereo not shown) [CBK285863],110.637
20,O=S(=O)(c1cc(Cl)sc1Cl)N1CCCCC1CO (stereo not shown) [CBK051422],82.794
21,C[C@H](Nc1nccnc1-c1ccco1)c1ccccc1 [CBK037032],148.805

row,Structure (SMILES),% of control remaining
1,O=C(COc1ccccc1Cl)N/N=C/c1ccc(-c2ccccc2[N+](=O)[O-])o1 [CBK262782],102.146
2,C=CCn1c(Cc2csc(NC(=O)c3cnc(C)cn3)n2)n[nH]c1=S [CBK295319],95.7996
3,c1ccc2c(c1)CCN(Cc1ncc[nH]1)C2 [CBK126402],99.5437
4,O=C(NCc1ccco1)C1(c2ccccc2)CCCC1 [CBK149539],85.5492
5,CC(=O)c1cc(CN2CCCOC(Cn3cccn3)C2)cs1 (stereo not shown) [CBK307365],51.061
6,O=C(Nc1ccc(N2CCN(Cc3ccccc3)CC2)cc1)c1cncc(Br)c1 [CBK267093],112.13
7,CC(C)c1ccc(S(=O)(=O)N(c2ccccc2)C2CCNCC2)cc1 [CBK165088T],69.558
8,O=C(CSCc1cccc(Cl)c1)Nc1cccnc1 [CBK264114],82.8775
9,CN1CCN(C(=O)CNS(=O)(=O)c2ccc3ccccc3c2)CC1 [CBK042205],84.9648
10,CCC1CCCCN1C(=O)c1cncc(Br)c1 (stereo not shown) [CBK076699],86.2943
11,CC(=O)Oc1ccc(N2C(=O)CCSC2=S)cc1 [CBK005283],65.4183
12,O=[N+]([O-])c1ccc(Cl)c(C2N(Cc3ccccc3)CCN2Cc2ccccc2)c1 [CBK261601],97.3518
13,O=C(O)[C@H](Cc1ccccc1)Nc1ncnc2[nH]cnc12 [CBK287090],96.8856
14,CCNS(=O)(=O)c1ccc(NC(=O)c2cc(-c3ccccn3)nc3c(C)c(C)ccc23)cc1 [CBK267733],78.0978
15,FC(F)(F)c1cccc(OCCCc2ccncc2)n1 [CBK115795],116.545
16,O=S(=O)(NCC(Sc1ccc(F)cc1)c1ccccc1)c1ccc(Cl)cc1 (stereo not shown) [CBK266306],127.779
17,O=C(CCn1c(-c2cccnc2)cc2cccnc21)NC1CC1 [CBK282622],119.941
18,C=CCN1CCCC[C@H]2CN(S(=O)(=O)c3cccc(F)c3)C[C@H]21 [CBK285500],78.7762
19,O=S(=O)(c1c(Cl)cccc1Cl)n1ccc2c(N3CCNCC3)nccc21 [CBK059060C],90.8384
20,CC1(CC(=O)N2CCCCCC2)SC(NC2CCCCCC2)=NC1=O (stereo not shown) [CBK074269],89.0444
21,FC(F)(F)c1ccc(CN2CCCN(c3cc(OC4CCCCC4)ncn3)CC2)cc1 [CBK083277T],53.5808

row,Structure (SMILES),% of control remaining
1,O=c1[nH]nc2cc(NCc3ccc(Cl)cc3)ncn12 [CBK288479],90.565
2,CN(C)CCN(C)c1nc(-c2ccc3[nH]ccc3c2)cn2ccnc12 [CBK066276],96.6352
3,COc1ccc(-c2cc(C(F)(F)F)nc(SCC(=O)N(C)c3ccccc3)n2)cc1OC [CBK267628],88.4805
4,O=S(=O)(Cc1ccc(Br)cc1F)c1ccccn1 [CBK019368],87.9217
5,O=C(c1cc2ccccc2[nH]1)N1CCN(Cc2ccccc2)CC1 [CBK200172],92.839
6,COc1ccc2nc(C)c(CCC(=O)O)c(O)c2c1 [CBK286955],111.588
7,CC(=O)c1sc(NC(=O)c2ccc(Br)o2)nc1C [CBK057948],70.6291
8,COc1ccc(C2(C(=O)NCc3ccc4c(c3)OCO4)CC2)cc1 [CBK149829],71.2623
9,CSc1nc(NC(=O)c2ccoc2)cc(N2CCNCC2)n1 [CBK050314T],75.6818
10,O=C(O)c1ccc(C(=O)Nc2cccc(NC(=O)C3CCCO3)c2)cc1 (stereo not shown) [CBK268613],102.298
11,FC(F)(F)c1ccnc(OCCN2CCOCC2)c1 [CBK113286],94.8644
12,COc1cc(C(=O)N2CCN(C(=O)CC(C)C)CC2)cc(OC)c1OC [CBK003604],32.461
13,CC(=O)c1ccc(C(=O)N2CCC3(CC2)CC(=O)c2ccc4ccccc4c2O3)cc1 [CBK156458],96.1377
14,CN(C)CCN(C)Cc1ccc2ccc3cccc4ccc1c2c34 [CBK261860],109.43
15,O=c1c2cc(F)ccc2nc2n1CCN(Cc1cccs1)CC2 [CBK284859],88.6206
16,Cc1cccnc1C(Cc1ccsc1)NC(=O)CCc1ccno1 (stereo not shown) [CBK284804],117.943
17,O=C(Cn1cnc2ccc(F)cc2c1=O)N1CCOC2CCCCC21 (stereo not shown) [CBK253316],88.3604
18,O=C(c1ccccc1[N+](=O)[O-])n1nc(-c2cccnc2)nc1NCc1cccs1 [CBK269094],89.0847
19,COc1ccc(C)cc1CC(=O)N1CCc2c(sc3ncnc(N)c23)C1 [CBK305878],41.9646
20,CCCCOc1ccc2c(C(F)(F)F)cc(=O)oc2c1 [CBK097821],76.5836
21,CCc1nnc(SCC(=O)Nc2cccc(OC)c2)[nH]1 [CBK270226],111.754

row,Structure (SMILES),% of control remaining
1,O=C(O)c1c2c(nc3ccccc13)C(=Cc1ccc3c(c1)OCCO3)CC2 [CBK297479],79.7756
2,COCC(=O)N1CCN2C(=O)N(Cc3ccccc3)C(=O)[C@H]2C1 [CBK289641],69.531
3,Cc1cc(C(=O)N2CCc3c(sc4ncnc(N)c34)C2)on1 [CBK306067],32.5897
4,Cn1cc(-c2nc(C3COCCN3Cc3c(F)cccc3Cl)no2)cn1 (stereo not shown) [CBK305441],76.2287
5,CCOc1ccccc1CN1CC2CCCN2C[C@@H]1C (stereo partly shown) [CBK285435],107.039
6,CC(C)(C)c1cc(CCCOC(=O)CNc2ccccc2)cc(C(C)(C)C)c1O [CBK261939],78.4539
7,Cc1nc2c3ccccc3nc(SCC(=O)Nc3ccccc3)n2n1 [CBK295205],11.3025
8,CN(C)CCN(C)C(=O)C1CCN(c2cncc(-c3ccc(O)cc3)n2)CC1 [CBK126928T],101.024
9,N#Cc1cn(S(=O)(=O)c2cccc(C(F)(F)F)c2)nc1N [CBK067225],52.2372
10,Cn1ccnc1C1(O)CC2CCC(C1)N2C(=O)C1CCCC1 (stereo not shown) [CBK284052],85.5954
11,Cc1cnn(CC(=O)N2CCCC(COc3ccccc3F)C2)c1 (stereo not shown) [CBK281999],115.356
12,Cc1ccc(S(=O)(=O)N(C)c2ccnc(N3CCNCC3)n2)cc1 [CBK200009],92.3796
13,O=c1[nH]c2ncc(-c3cccc4ncccc34)nc2n1C1CCCCC1 [CBK064861],84.615
14,O=C1NCC(C(=O)N2CCC3(CC2)CC(=O)c2cc(Br)ccc2O3)N1 (stereo not shown) [CBK156475],99.4606
15,O=[N+]([O-])c1ccc(CN2CCN(c3nccnc3OCC3COc4ccccc4O3)CC2)cc1 (stereo not shown) [CBK082791T],67.3905
16,CCOc1ccc(NC(=O)N(C)Cc2noc(CC(C)C)n2)cc1C#N [CBK307089],61.1701
17,O=C(O)CC1SC(=O)N(c2ccccc2)C1=O (stereo not shown) [CBK287085],112.067
18,Cn1nccc1CN1CCC(Oc2ccccc2F)CC1 [CBK281618],101.336
19,Cn1c(SCC(=O)c2ccccc2)nc2ccccc2c1=O [CBK055260],107.214
